According to PMC5700166:
The entries are a selection whose mix differs from that of the whole data set. The list includes weakly bound sequences.

Tests used:
Assay in all cases: protein-binding microarray (PBM)
Conditions in all cases: PBM: ~300 nM protein, 6 mM HEPES pH 7.8, 80 mM KCl, 0.5 mM EDTA, 0.5 mM EGTA, 6% glycerol, 35 ng/ul poly-dIdC, 1% milk, 1 h, room temperature; Ap Aiptasia and Nv Nematostella (sea anemones) / Co Capsaspora / Aq Amphimedon (sponge) / Dm Drosophila / Hu human; RHD is the Rel homology domain; high values mean tight binding; most listed sequences are background and not binding sites; double strand, one strand shown
GST-Ap-NF-kB RHD = target: T1, GST-Ap-NF-kB RHD (UniProt A0A913YAJ5)
T1 sequence: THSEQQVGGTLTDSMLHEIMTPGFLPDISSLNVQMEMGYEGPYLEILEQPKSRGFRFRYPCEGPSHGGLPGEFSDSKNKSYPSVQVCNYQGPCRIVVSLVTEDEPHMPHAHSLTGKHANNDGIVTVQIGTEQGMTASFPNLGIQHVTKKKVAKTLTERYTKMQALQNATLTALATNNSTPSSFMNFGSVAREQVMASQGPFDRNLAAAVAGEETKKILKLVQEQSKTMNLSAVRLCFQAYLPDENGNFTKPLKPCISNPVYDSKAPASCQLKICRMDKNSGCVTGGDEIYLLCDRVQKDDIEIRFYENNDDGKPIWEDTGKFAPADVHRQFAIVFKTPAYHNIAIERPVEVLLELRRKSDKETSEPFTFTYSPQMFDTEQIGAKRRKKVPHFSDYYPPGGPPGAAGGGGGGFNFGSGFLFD

[1] = target: T2, GST-Nv-NF-kB (Cys allele) (UniProt E5G601)
T2 sequence: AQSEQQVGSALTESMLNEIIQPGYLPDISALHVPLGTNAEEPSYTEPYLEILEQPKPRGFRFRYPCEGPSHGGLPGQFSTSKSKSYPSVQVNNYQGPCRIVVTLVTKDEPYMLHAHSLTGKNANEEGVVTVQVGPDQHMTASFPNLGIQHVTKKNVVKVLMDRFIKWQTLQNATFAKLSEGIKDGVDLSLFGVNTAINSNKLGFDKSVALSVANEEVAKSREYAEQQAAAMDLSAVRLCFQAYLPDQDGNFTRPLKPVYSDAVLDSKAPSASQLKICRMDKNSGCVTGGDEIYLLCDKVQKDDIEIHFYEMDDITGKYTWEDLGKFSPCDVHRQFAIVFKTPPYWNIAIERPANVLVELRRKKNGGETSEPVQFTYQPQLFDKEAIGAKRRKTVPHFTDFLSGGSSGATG

GST-Co-NF-kB = target: T3, GST-Co-NF-kB (UniProt F1ARL5)
T3 sequence: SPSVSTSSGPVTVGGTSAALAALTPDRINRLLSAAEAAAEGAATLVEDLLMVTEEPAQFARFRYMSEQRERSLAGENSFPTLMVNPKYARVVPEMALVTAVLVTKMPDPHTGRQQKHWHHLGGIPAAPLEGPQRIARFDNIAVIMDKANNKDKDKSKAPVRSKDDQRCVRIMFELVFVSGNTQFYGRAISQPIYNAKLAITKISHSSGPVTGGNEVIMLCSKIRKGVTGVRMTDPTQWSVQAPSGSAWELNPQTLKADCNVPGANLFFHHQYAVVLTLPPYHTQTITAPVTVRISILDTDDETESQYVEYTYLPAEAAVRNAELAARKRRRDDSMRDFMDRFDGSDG

GST-Dm-Relish = target: T4, GST-Dm-Relish (UniProt Q94527)
T4 sequence: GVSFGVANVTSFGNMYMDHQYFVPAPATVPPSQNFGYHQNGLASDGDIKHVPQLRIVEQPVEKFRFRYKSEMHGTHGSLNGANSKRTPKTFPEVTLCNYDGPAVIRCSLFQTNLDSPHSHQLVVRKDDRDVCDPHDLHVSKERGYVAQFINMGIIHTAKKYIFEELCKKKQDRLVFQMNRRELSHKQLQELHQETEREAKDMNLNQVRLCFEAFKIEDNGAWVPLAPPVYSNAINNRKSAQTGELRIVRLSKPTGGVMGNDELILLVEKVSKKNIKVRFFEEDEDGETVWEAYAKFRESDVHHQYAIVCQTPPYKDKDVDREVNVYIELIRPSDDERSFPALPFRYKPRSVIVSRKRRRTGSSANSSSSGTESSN

GST-Aq-NF-kB = target: T5, GST-Aq-NF-kB (UniProt A9Y5G7)
T5 sequence: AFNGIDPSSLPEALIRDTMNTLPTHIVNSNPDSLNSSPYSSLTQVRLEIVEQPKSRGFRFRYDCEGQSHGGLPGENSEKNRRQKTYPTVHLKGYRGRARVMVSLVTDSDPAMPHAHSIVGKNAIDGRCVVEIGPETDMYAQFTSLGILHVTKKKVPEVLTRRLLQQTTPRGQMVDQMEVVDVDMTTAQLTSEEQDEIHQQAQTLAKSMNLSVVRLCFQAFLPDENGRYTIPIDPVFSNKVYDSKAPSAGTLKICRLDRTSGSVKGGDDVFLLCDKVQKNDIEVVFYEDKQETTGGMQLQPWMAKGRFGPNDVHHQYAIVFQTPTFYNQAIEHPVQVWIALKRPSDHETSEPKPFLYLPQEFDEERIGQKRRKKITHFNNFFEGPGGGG

## CCGATTAACATCAGATAAATTCCTGATGTTAATCGGGTCTTGATTCGCTTGACGCTGCTG
GST-Ap-NF-kB RHD
  binding signal: -0.719 z-score
[1]
  binding signal: -0.397 z-score
GST-Co-NF-kB
  binding signal: -0.564 z-score
GST-Dm-Relish
  binding signal: 0.573 z-score
GST-Aq-NF-kB
  binding signal: 0.00651 z-score

## CCGATTAACATCATGCCAATAGTTGATGTTAATCGGGTCTTGATTCGCTTGACGCTGCTG
GST-Ap-NF-kB RHD
  binding signal: -0.363 z-score
[1]
  binding signal: 0.139 z-score
GST-Co-NF-kB
  binding signal: -0.152 z-score
GST-Dm-Relish
  binding signal: -0.456 z-score
GST-Aq-NF-kB
  binding signal: -0.11 z-score

## CCGATTAACATCAGATATTTCGATGATGTTAATCGGGTCTTGATTCGCTTGACGCTGCTG
GST-Ap-NF-kB RHD
  binding signal: -0.44 z-score
[1]
  binding signal: -0.67 z-score
GST-Co-NF-kB
  binding signal: -0.2 z-score
GST-Dm-Relish
  binding signal: -0.668 z-score
GST-Aq-NF-kB
  binding signal: -0.498 z-score

## CCGATTAACATCATTACAACGCTTGATGTTAATCGGGTCTTGATTCGCTTGACGCTGCTG
GST-Ap-NF-kB RHD
  binding signal: -0.983 z-score
[1]
  binding signal: -0.0474 z-score
GST-Co-NF-kB
  binding signal: -0.756 z-score
GST-Dm-Relish
  binding signal: 0.178 z-score
GST-Aq-NF-kB
  binding signal: -0.353 z-score

## CCGATTAACATCAGCACCCTCCATGATGTTAATCGGGTCTTGATTCGCTTGACGCTGCTG
GST-Ap-NF-kB RHD
  binding signal: 0.44 z-score
[1]
  binding signal: 0.59 z-score
GST-Co-NF-kB
  binding signal: 0.765 z-score
GST-Dm-Relish
  binding signal: 0.262 z-score
GST-Aq-NF-kB
  binding signal: 0.734 z-score

## CCGATTAACATCATAAAGTCATGTGATGTTAATCGGGTCTTGATTCGCTTGACGCTGCTG
GST-Ap-NF-kB RHD
  binding signal: -0.451 z-score
[1]
  binding signal: -0.048 z-score
GST-Co-NF-kB
  binding signal: 0.605 z-score
GST-Dm-Relish
  binding signal: 0.166 z-score
GST-Aq-NF-kB
  binding signal: -0.415 z-score

## CCGATTAACATCACCTTGTGATCTGATGTTAATCGGGTCTTGATTCGCTTGACGCTGCTG
GST-Ap-NF-kB RHD
  binding signal: 0.0776 z-score
[1]
  binding signal: -0.389 z-score
GST-Co-NF-kB
  binding signal: -0.118 z-score
GST-Dm-Relish
  binding signal: 0.284 z-score
GST-Aq-NF-kB
  binding signal: 0.125 z-score

## CCGATTAACATCAGGGAGCCGTATGATGTTAATCGGGTCTTGATTCGCTTGACGCTGCTG
GST-Ap-NF-kB RHD
  binding signal: 1.18 z-score
[1]
  binding signal: 0.127 z-score
GST-Co-NF-kB
  binding signal: 0.12 z-score
GST-Dm-Relish
  binding signal: -0.59 z-score
GST-Aq-NF-kB
  binding signal: 0.316 z-score

## CCGATTAACATCAAATCATCAGATGATGTTAATCGGGTCTTGATTCGCTTGACGCTGCTG
GST-Ap-NF-kB RHD
  binding signal: -0.514 z-score
[1]
  binding signal: -0.717 z-score
GST-Co-NF-kB
  binding signal: -0.96 z-score
GST-Dm-Relish
  binding signal: -1.24 z-score
GST-Aq-NF-kB
  binding signal: -0.482 z-score

## CCGATTAACATCAAGCCTCAATATGATGTTAATCGGGTCTTGATTCGCTTGACGCTGCTG
GST-Ap-NF-kB RHD
  binding signal: -0.574 z-score
[1]
  binding signal: 0.47 z-score
GST-Co-NF-kB
  binding signal: -0.511 z-score
GST-Dm-Relish
  binding signal: -0.553 z-score
GST-Aq-NF-kB
  binding signal: -0.482 z-score

## CCGATTAACATCAGTCATGCAGGTGATGTTAATCGGGTCTTGATTCGCTTGACGCTGCTG
GST-Ap-NF-kB RHD
  binding signal: -0.0472 z-score
[1]
  binding signal: -0.0493 z-score
GST-Co-NF-kB
  binding signal: -0.0231 z-score
GST-Dm-Relish
  binding signal: 0.259 z-score
GST-Aq-NF-kB
  binding signal: 0.143 z-score

## CCGATTAACATCAGGAAACGCCCTGATGTTAATCGGGTCTTGATTCGCTTGACGCTGCTG
GST-Ap-NF-kB RHD
  binding signal: 0.604 z-score
[1]
  binding signal: 0.466 z-score
GST-Co-NF-kB
  binding signal: -0.0947 z-score
GST-Dm-Relish
  binding signal: 0.949 z-score
GST-Aq-NF-kB
  binding signal: 3.05 z-score

## CCGATTAACATCAGTTTCCGAAGTGATGTTAATCGGGTCTTGATTCGCTTGACGCTGCTG
GST-Ap-NF-kB RHD
  binding signal: -0.487 z-score
[1]
  binding signal: 0.344 z-score
GST-Co-NF-kB
  binding signal: 0.0647 z-score
GST-Dm-Relish
  binding signal: -0.218 z-score
GST-Aq-NF-kB
  binding signal: -0.228 z-score

## CCGATTAACATCATTGTGTTTTGTGATGTTAATCGGGTCTTGATTCGCTTGACGCTGCTG
GST-Ap-NF-kB RHD
  binding signal: 0.219 z-score
[1]
  binding signal: -0.359 z-score
GST-Co-NF-kB
  binding signal: 0.557 z-score
GST-Dm-Relish
  binding signal: 0.493 z-score
GST-Aq-NF-kB
  binding signal: -0.489 z-score
